Where two headings read alike, the source gives them in different places.
How the values were obtained:
Fusarium verticillioides = settings: maize, with X-77 adjuvant 0.125% v/v
[1] = test system: Fusarium verticillioides and Fusarium graminearium; settings: with X-77 adjuvant 0.125% v/v

## Prothioconazole
Fusarium verticillioides; applied GS 51-55, 50 gai/ha
  % Disease Severity % of Control: 51.6%
  % Disease Severity Observed per Ear: 7.5%
  Fusarium Efficacy Observed (%): 48.4%
Fusarium verticillioides; applied GS 51-55, 100 gai/ha
  % Disease Severity % of Control: 88.4%
  % Disease Severity Observed per Ear: 12.6%
  Fusarium Efficacy Observed (%): 11.6%
Fusarium verticillioides; applied GS 51-55, 200 gai/ha
  % Disease Severity % of Control: 74.7%
  % Disease Severity Observed per Ear: 10.7%
  Fusarium Efficacy Observed (%): 25.3%
[1]; applied GS 51-55, 100 gai/ha
  Maize Weight per maize Ear, Observed Mass (grams): 104.0 grams
[1]; applied GS 51-55, 200 gai/ha
  Maize Weight per maize Ear, Observed Mass (grams): 107.8 grams
